# Assay results from paper PMC7819943, “Rice protein-binding microarrays: a tool to detect cis-acting elements near promoter regions in rice”.
# The other results are listed elsewhere or left out.
# Molecular target: T1, OsWOX13 (Oryza sativa, UniProt Q5QMM3 1-267)
# T1 sequence: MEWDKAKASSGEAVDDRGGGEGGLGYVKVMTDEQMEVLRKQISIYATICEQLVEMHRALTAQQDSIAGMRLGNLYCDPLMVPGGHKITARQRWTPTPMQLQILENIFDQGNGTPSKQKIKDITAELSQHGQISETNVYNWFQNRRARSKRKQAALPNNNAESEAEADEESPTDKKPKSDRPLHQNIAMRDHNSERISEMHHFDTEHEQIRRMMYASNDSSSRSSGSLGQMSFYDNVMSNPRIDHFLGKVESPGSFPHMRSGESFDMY
# Test: protein-binding microarray (RPBM); PBS, 2% BSA, 51.3 ng/ul salmon testes DNA, 50 uM zinc acetate, 200 nM TF, 25 C, 1 h; high values mean tight binding
# Settings: protein: recombinant; tags: N-terminal polyhistidine and DsRed monomer fusion (pET32a); label: CyDye5-dUTP incorporated in the synthesized complementary strand; 3' TTTTT single-stranded linker to array surface; dsDNA, one strand shown
# In short: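 A custom Agilent array was converted to double-stranded form by primer extension with Cy5-dUTP and blocked with 2% BSA. Protein at 200 nM in PBS with 2% BSA, salmon testes DNA and 50 µM zinc acetate was applied for 1 h at 25 °C, followed by washing. The proteins were polyhistidine–DsRed N-terminal fusions of transcription factors, expressed in E. coli BL21-CodonPlus and Ni–NTA-purified. The binding signal is per-feature fluorescence intensity (arbitrary units) from an Axon 4000B scanner.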
row,Sequence,binding signal
1,ATAATATTGTAAATGATGCGTAATTGCTAGTGAGTGAAGACGGAGTCACCTAGTGCAG,12900 fluorescence intensity (a.u.)
2,CATGATATAACTGTAACACATCAAGTTGTCTGACCATATCCGGAGTCACCTAGTGCAG,7650 fluorescence intensity (a.u.)
3,ACTATTGATTATAATTCTTGAAGCAATCTCATATTTGTAACGGAGTCACCTAGTGCAG,21100 fluorescence intensity (a.u.)
4,CCTTAATTTTCAGTGTTAGTAATTTTCATTAACTAATTCTCGGAGTCACCTAGTGCAG,16200 fluorescence intensity (a.u.)
5,ATTTAAATGAGATGATTGATGGGGCAATTAGTACTCTAGACGGAGTCACCTAGTGCAG,38600 fluorescence intensity (a.u.)
6,GCGCAATTTATTTTGAAATGACTGTAAAATCACAAGTACACGGAGTCACCTAGTGCAG,7730 fluorescence intensity (a.u.)
7,CCCTTAATTTGTTTTGTACAATATGAGTGGAAGGGAGTGCCGGAGTCACCTAGTGCAG,32800 fluorescence intensity (a.u.)
8,CGAGGAATTGATAAACTGACTTCACTCTCATTATATTTCGCGGAGTCACCTAGTGCAG,20300 fluorescence intensity (a.u.)
9,AGTATAATTGAAGTGTAATTACATGTAGCTGCACTATAACCGGAGTCACCTAGTGCAG,37700 fluorescence intensity (a.u.)
10,GACTTTAAGATTGAAAACAACACCCCTTGCTACTGCAGTACGGAGTCACCTAGTGCAG,7450 fluorescence intensity (a.u.)
11,TTGTTCTTTCGTCATTAGATTGGTCCCATAAAAGATGGGACGGAGTCACCTAGTGCAG,3690 fluorescence intensity (a.u.)
12,TGCACAGATTGAGACTAAATTAGGAGACAAATCTTTTAAGCGGAGTCACCTAGTGCAG,32300 fluorescence intensity (a.u.)
13,TCCTTAATAGAGAAACCAAATTCATCAAACTCAATGGAACCGGAGTCACCTAGTGCAG,13200 fluorescence intensity (a.u.)
14,TAGATTGGCTAGTTAGTTTGACAGAGTGGTTAGTGAAGGACGGAGTCACCTAGTGCAG,24900 fluorescence intensity (a.u.)
15,ATGTGATGGATGTTATTCTTGGCCCGATGGAGATAACTTTCGGAGTCACCTAGTGCAG,8500 fluorescence intensity (a.u.)
16,AGATAGCTAATTACATAGGGAAAGAGTGGAAGCAATGTGGCGGAGTCACCTAGTGCAG,6340 fluorescence intensity (a.u.)
17,TCTAATTGAAATTATTGTGTTTATGTATAAAGACAAATACCGGAGTCACCTAGTGCAG,24900 fluorescence intensity (a.u.)
18,TTATGTAATTATCATTTATTTTATTGTGACTTGATTCGTCCGGAGTCACCTAGTGCAG,24800 fluorescence intensity (a.u.)
19,TCACAACGATTTACGGTTAATTATTATTTCAGTGGTAGACCGGAGTCACCTAGTGCAG,6110 fluorescence intensity (a.u.)
20,CGGTTCATTAACACATGATTAATTAAGTATTAGTTAAATTCGGAGTCACCTAGTGCAG,17900 fluorescence intensity (a.u.)
21,TTGACAAAATGAATAAATTTGGACTTGGGCTGCGTTCGATCGGAGTCACCTAGTGCAG,6560 fluorescence intensity (a.u.)

row,Sequence,binding signal
1,CTCTAGTTCAGCTGTTTAAACCCACAGTTTAACATTGCTTCGGAGTCACCTAGTGCAG,7900 fluorescence intensity (a.u.)
2,CATTCTAATTAGCAATGGTCACCACGAATGATTAATGTAGCGGAGTCACCTAGTGCAG,28200 fluorescence intensity (a.u.)
3,TGTTAAATTGCTGTTAAATTCTTAAACAACTCAAACATCGCGGAGTCACCTAGTGCAG,30800 fluorescence intensity (a.u.)
4,AGCTCTATAATTTTACAATTTAAAATTATATTATATAAAGCGGAGTCACCTAGTGCAG,20400 fluorescence intensity (a.u.)
5,TCACACATAATTGACTTCACCTGTAAAACAAGTGAGCGAACGGAGTCACCTAGTGCAG,19600 fluorescence intensity (a.u.)
6,GTATTTAATTAGCTCCTCGTCTTGTTCTGCTAAGCTACTACGGAGTCACCTAGTGCAG,20400 fluorescence intensity (a.u.)
7,ATCAAAACATAGTATCAATTATCAAGAACCGCCGCACCACCGGAGTCACCTAGTGCAG,3580 fluorescence intensity (a.u.)
8,GTATACAGGAGATCGATTAATTAATACTCCAAATTACACACGGAGTCACCTAGTGCAG,3370 fluorescence intensity (a.u.)
9,ATGGGAAAGTAAATCAATTAACATATATACTCGTTTAAAACGGAGTCACCTAGTGCAG,9870 fluorescence intensity (a.u.)
10,GAACCCTGATATAATCACATTTTCAACTGTGATATCCGCTCGGAGTCACCTAGTGCAG,3540 fluorescence intensity (a.u.)
11,GACAACGACATCAATCAACGAAGCGCTGGCAGAGACGGCGCGGAGTCACCTAGTGCAG,15800 fluorescence intensity (a.u.)
12,ACAAATTGTAATAACTCAGCGAGTAGAAATTTTAACAATGCGGAGTCACCTAGTGCAG,10500 fluorescence intensity (a.u.)
13,GCTCTAAGGGTGGGTTTTGATGGGAGGTTTTGGATGGATACGGAGTCACCTAGTGCAG,6370 fluorescence intensity (a.u.)
14,GTATGGATTAGGTGGTATGATTGAGATGCCACACTGCCTTCGGAGTCACCTAGTGCAG,25900 fluorescence intensity (a.u.)
15,TACTGATGATCGATTAAAATGCTAACCCGGATATGACGAACGGAGTCACCTAGTGCAG,6570 fluorescence intensity (a.u.)
16,CAAAACTAATTTTCTTGGCGGGTTTAGGTGATGTGGCATCCGGAGTCACCTAGTGCAG,21700 fluorescence intensity (a.u.)
17,TCTTAATTGAAAGAGTTTTCATCATGTCTTTCAGTCACCACGGAGTCACCTAGTGCAG,53900 fluorescence intensity (a.u.)
18,AGTTTTACAATAAATTTACTGTTATAAATATACATTTAACCGGAGTCACCTAGTGCAG,6140 fluorescence intensity (a.u.)
19,CCATGCCTTGCCGATTTAATTAGCGGTTAATTATCCTCATCGGAGTCACCTAGTGCAG,11800 fluorescence intensity (a.u.)
20,GTGTAATTATCTTCTCTTTACATATACTGCATACGTCAAGCGGAGTCACCTAGTGCAG,32700 fluorescence intensity (a.u.)
21,TTGTTTACTTGATTAACATGATAAATTAAGTTTGAAGAAACGGAGTCACCTAGTGCAG,13100 fluorescence intensity (a.u.)
